Source: patent US9499612B2, “Antigen binding constructs” (Glaxo Group Limited, priority 2011, dated 2016)

T1: rhVEGF165 (Homo sapiens, UniProt P15692)
T1 construct: made in house; host or cells: HEK293 cells, transient transfection
T1 sequence (P15692 27-191 isoform P15692-4): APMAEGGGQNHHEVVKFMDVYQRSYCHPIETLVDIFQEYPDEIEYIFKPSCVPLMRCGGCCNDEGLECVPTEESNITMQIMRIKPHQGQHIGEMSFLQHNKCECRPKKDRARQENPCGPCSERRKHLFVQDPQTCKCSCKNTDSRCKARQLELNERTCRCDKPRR


Biological target: T1, rhVEGF165
Assay: BIACORE T100 SPR binding to VEGF165 at 37° C.
Details: for fit: fit to 1:1 model
Method: (§1) The run was carried out at 37° C., using HBS-EP as the running buffer.
as §1, §1, §1, §1

fit (Table 11A)	Kd (Table 11A, 37 °C)	Molecule	also measured
ok		C085 G4Sx3: Vk Fc-dAb, DT02-K-044-085 with C-terminal Gly4Ser 3x Linker (protein, C-terminal Fc fusion of K-044-085 DAB ((Gly4Ser)x3) amino acid sequence identified using molecular biology techniques., Vk Fc-dAb, DT02-K-044-085 with C-terminal Gly4Ser 3x Linker) [human IgG1 Fc not shown]GGGGSGGGGSGGGGSDIQMTQSPSSLSASVGDRVTITCRASQWIGPELKWYQQKPGKAPKLLIYHGSILQSGVPSRFSGSGSGTDFTLTISSLQPEDFATYYCQQYMYYPHTFGQGTKVEIKR	
ok		C085 Alb DOM3: Vk Fc-dAb, DT02-K-044-085 with C-terminal Albumin Domain 3 linker (protein) [human IgG1 Fc not shown]EVDETYVPKEFNAETFDIQMTQSPSSLSASVGDRVTITCRASQWIGPELKWYQQKPGKAPKLLIYHGSILQSGVPSRFSGSGSGTDFTLTISSLQPEDFATYYCQQYMYYPHTFGQGTKVEIKR	
Ok and ok		C085 Alb DOM1: Vk Fc-dAb, DT02-K-044-085 with C-terminal Albumin Domain 1 linker (protein) [human IgG1 Fc not shown]HKDDNPNLPRLVRPEVDVMDIQMTQSPSSLSASVGDRVTITCRASQWIGPELKWYQQKPGKAPKLLIYHGSILQSGVPSRFSGSGSGTDFTLTISSLQPEDFATYYCQQYMYYPHTFGQGTKVEIKR	
Ok	At the limite of	DMS30014: anti-VEGF Vk dAb / Fc fusion compared in Table 11A (protein, C-terminal Fc fusion of K-044-085 DAB(Albumin Domain 3 Linker) Fc-dAb amino acid sequence identified using molecular biology techniques.) [human IgG1 Fc not shown]EVDETYVPKEFNAETFTFHADDIQMTQSPSSLSASVGDRVTITCRASQWIGPELKWYQQKPGKAPKLLIYHGSILQSGVPSRFSGSGSGTDFTLTISSLQPEDFATYYCQQYMYYPHTFGQGTKVEIKR	
		DMS30006: Vk dAb-Fc molecule (protein, N-terminal Fc fusion of K-044-255 DAB (AAAS Linker) dAb-Fc amino acid sequence identified using molecular biology techniques., Vk dAb-Fc molecule) ESTDIQMTQSPSSLSASVGDRVTITCRASQWIGPELKWYQQKPGKAPKLLIYHGSILQSGVPSRFSGSGSGTDFTLTISSLQPEDFATYYCQQYMYYPKTFGQGTKVEIKRAA[human IgG1 Fc and a few adjoining residues not shown]	fit of binding data (cell spanning ka, kd, KD) (Table 5, 37 °C): Poor fit to 1:1 model
ok	Too tight	C085 Alb DOM2: Vk Fc-dAb, DT02-K-085 linked to IgG1Fc by C-terminal linker Albumin domain 2 (protein) [human IgG1 Fc not shown]ENDEMPADLPSLAADFVESKDDIQMTQSPSSLSASVGDRVTITCRASQWIGPELKWYQQKPGKAPKLLIYHGSILQSGVPSRFSGSGSGTDFTLTISSLQPEDFATYYCQQYMYYPHTFGQGTKVEIKR	
ok	Too tight	DMS30013: anti-VEGF Vk dAb / Fc fusion (SEQ ID NO:16 & 44) (protein, C-terminal Fc fusion of K-044-085 DAB (Albumin Domain 3 Linker) Fc-dAb nucleic acid sequence identified using molecular biology techniques.) [human IgG1 Fc and a few adjoining residues not shown]EVDETYVPKEFNAETFTFHADDIQMTQSPSSLSASVGDRVTITCRASQWIGPELKWYQQKPGKAPKLLIYHGSILQSGVPSRFSGSGSGTDFTLTISSLQPEDFATYYCQQYMYYPHTFGQGTKVEIKR	
ok	At the limit of	DMS30026: Vk Fc-dAb, DT02-K-085 dAb attached to IgG1Fc by C-terminal fib4 linker (protein, C-terminal Fc fusion of K-044-085 DAB ((TGLDSP)x4) amino acid sequence identified using molecular biology techniques., Vk Fc-dAb, DT02-K-085 dAb attached to IgG1Fc by C-terminal fib4 linker) [human IgG1 Fc not shown]TGLDSPTGLDSPTGLDSPTGLDSPDIQMTQSPSSLSASVGDRVTITCRASQWIGPELKWYQQKPGKAPKLLIYHGSILQSGVPSRFSGSGSGTDFTLTISSLQPEDFATYYCQQYMYYPHTFGQGTKVEIKR	comment (Table 11B): Good fit to the 1:1 binding model
ok		C085 G4Sx4: Vk Fc-dAb, DT02-K-044-085 with C-terminal Gly4Ser 4x Linker (protein, C-terminal Fc fusion of K-044-085 DAB ((Gly4Ser)x4) amino acid sequence identified using molecular biology techniques., Vk Fc-dAb, DT02-K-044-085 with C-terminal Gly4Ser 4x Linker) [human IgG1 Fc not shown]GGGGSGGGGSGGGGSGGGGSDIQMTQSPSSLSASVGDRVTITCRASQWIGPELKWYQQKPGKAPKLLIYHGSILQSGVPSRFSGSGSGTDFTLTISSLQPEDFATYYCQQYMYYPHTFGQGTKVEIKR	Ka (Table 11A, 37 °C, VEGF 16 nM-[…]): 6.11E+06 M − 1 · s − 1
Not ideal/doesn't look like		N085 Fibrx4: Vk dAb-Fc, DT02-K-085 linked to IgG1Fc by N-terminal linker Fibronectin 4 (protein) DIQMTQSPSSLSASVGDRVTITCRASQWIGPELKWYQQKPGKAPKLLIYHGSILQSGVPSRFSGSGSGTDFTLTISSLQPEDFATYYCQQYMYYPHTFGQGTKVEIKRTGLDSPTGLDSPTGLDSPTGLD[human IgG1 Fc and a few adjoining residues not shown]	
Not ideal/doesn't look like	Too tight	N085TVAAPS: Vk dAb-Fc, DT02-K-085 linked to IgG1Fc by N-terminal 1xTVAAPS linker (protein, N-terminal Fc fusion of K-044-085 DAB (TVAAPS) amino acid sequence identified using molecular biology techniques., Vk dAb-Fc, DT02-K-085 linked to IgG1Fc by N-terminal 1xTVAAPS linker) DIQMTQSPSSLSASVGDRVTITCRASQWIGPELKWYQQKPGKAPKLLIYHGSILQSGVPSRFSGSGSGTDFTLTISSLQPEDFATYYCQQYMYYPHTFGQGTKVEIKRTVAA[human IgG1 Fc and a few adjoining residues not shown]	comment (Table 11C): Biphasic curves. Doesn't look
